According to the supplement of paper PMC10300432:
Recombinant human monoclonal antibodies (heavy:light variable regions). ELISA EC50 on the named antigen, from 10 µg/ml down; IC50 against spike pseudovirus on HT1080-ACE2 cells, 48 h; lower = stronger. Calls: IC50 above 1,000 ng/ml = non-neutralizing; EC50 above 1,000 ng/ml = non-binder.

What was measured:
[1] = biological target: SARS-CoV-2 Omicron BA.1 spike pseudovirus; experiment: pseudovirus neutralization IC50; higher = weaker neutralization
Procedure: (§1)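 Single-round luciferase reporter pseudovirus mixed with antibody dilutions and put on HT1080-ACE2 clone 14 cells for 48 h; signal relative to no-antibody wells, four-parameter fit.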

[2] = biological target: SARS-CoV-2 Omicron BA.4/5 spike pseudovirus; experiment: as above
Procedure: as §1

[3] = biological target: SARS-CoV-2 Wuhan-Hu-1 spike pseudovirus; experiment: as above
Procedure: as §1

[4] = biological target: SARS-CoV-2 Wuhan-Hu-1 spike receptor-binding domain; experiment: ELISA binding EC50; higher = weaker binding; ELISA of recombinant human antibody on coated antigen, from 10 µg/ml in fourfold dilutions; four-parameter fit.

Row | Binder | pseudovirus neutralization IC50 [1] | pseudovirus neutralization IC50 [2] | pseudovirus neutralization IC50 [3] | ELISA binding EC50 [4]
1 | C5295 (protein) chain 1: EVQLVESGGGLVQPGGSLRLSCSGSGFILSDFGMHWVRQAPGKGLEYVSAITSYGNSTYYADSVKGRFTISRDNSKNTLYLQMSSLRTEDTAVYYCAKSMVRGHAYYYGMDVWGQGTTVTVSS chain 2: DIQMTQSPSSLSASVGDRVTITCRASQSIYNFLNWFQQKPGKAPKLLIHAASSLQSGVPSRFSGSGSGTDFTLTISTLHPEDFATYYCQQSYTTPHTFGQGTKLEIK | 0.00152 µg/mL | > 1 µg/mL | 0.000851 µg/mL | 0.00204 µg/mL
2 | C5303 (protein) chain 1: EVQLVQSGVEVKKPGESLKISCKGSGYSLTTSWIGWVRQMPGKGLEWMGIIYPGDSDTRYSPSFQGQVTISADKSINTAYLQWSSLKASDTAMYYCARHRDRALYGEPFDLWGQGTMVTVSS chain 2: DIQMTQSPSSLSASVGDRVTITCRSSQSITNYLNWYQQKPGKAPKLLIYGASSLQSGVPSRFSGSGSGTDFTLTISSLQPEDFATYYCQQSYSTPHTFGQGTKLEIK | > 1 µg/mL | > 1 µg/mL | 0.0899 µg/mL | 0.0038 µg/mL
3 | C5299 (protein) chain 1: QVQLVQSGAEVKKPGASVKISCKASGYSFSDHYIYWVRQAPGQGLEWMGIINPSGGSISYHRRFQGRVTMTRDTSTKTVYMDLSRLRSEDTAVYYCARSSFGVPAASPFDHWGQGTLVTVSS chain 2: EIVMTQSPAILSVSPGERATLSCRASQSVGTNLAWYQQKPGQAPRLLIYGASTWDTDIPTRFSGSGSGTEFTLTISSLQSEDFAVYYCQHYSNWPPVYTFGQGTKLEIK | > 1 µg/mL | > 1 µg/mL | > 1 µg/mL | 0.00479 µg/mL
4 | C5297 (protein) chain 1: QVQLVESGGGVAQPGRSLRLSCAGSGFSFSRYAMHWVRQAPGKGLEWVAVISSHGSNENYADSVKGRFTISRDDSKNTLYLQMNSLRAEDTAVYYCARGPPGWEVLLPFDFWGQGTLVTVS chain 2: SYVLTQPPSVSVAPGQTATITCVGDNIRSKSVHWYQQKPGQAPVVVIYYDSDRPSGTPERFSGSNSGNTATLSVSRVEAGDEADYHCQVWDSSSDHWVFGGGTKLTVL | > 1 µg/mL | > 1 µg/mL | 0.00945 µg/mL | 0.0033 µg/mL
5 | C5293 (protein) chain 1: EVQLLESGGALLPPGGSLRLSCLVSGFPFSNYAMSWVRQAPGKGLEWVSGISGRGDISYYADSVKGRFTVSRDNAKNTLYLQMSRLSADDTAVYYCAKDQDMTMVQPEYFHHWGLGTLVTVSS chain 2: DIQMTQSPSSVSASIGDRVTITCRASQGINRWLAWYQQKPGKAPKLLIYGASTLQSGVPSRFSGSGSGTDFTLTISSLQPEDFATYYCQQADSSPYTFGQGTKLEIK | 0.00134 µg/mL | 0.00135 µg/mL | 0.00272 µg/mL | 0.00227 µg/mL
6 | C5290 (protein) chain 1: EVQLVESGGGLVQPGRSLRLSCVASGFTFEDYAMHWVRQTPGKGLEWVSGISWNGGIIGSADSVQGRFIISRDNAANSMFLHMRGLRIEDSALYYCVKDKEFREAYNSRAGFDSWGQGTLVTVSS chain 2: QSVLTQPPSASGTPGQRVSISCSGTRSNIGSNDVYWYQRLPGSAPKLLIFRNNQRPSGVPDRFSGSKSGTSASLAISGLRSEDEADYFCAAWDDRLSGPNVVFGGGTKLTVL | 0.0413 µg/mL | 0.0291 µg/mL | 0.00546 µg/mL | 0.00356 µg/mL
7 | C5292 (protein) chain 1: QVQLVESGGGVVQPGRSLRLSCEASGFSFSNYGMHWVRQTPGKGLEWVAVIWYDGSDTYYADSVKGRFTISRDDSKNTLYLQMNSLRAEDTAVYYCAKGDWYSSTWHFFFEYWGQGTLVTVSS chain 2: EIVMTQSPATLSVSPGERATLSCRANQSVSTNLAWYQQKPGQAPRLLIYGASTRATGIPARFSGSGSGTEFTLTISSLQSEDFAVYYCQQYKNWPPITFGQGTRLEIK | > 1 µg/mL | > 1 µg/mL | > 1 µg/mL | 0.0251 µg/mL
8 | C5052 (protein) chain 1: QVQLVQSGAEVKKPGSSVRVSCKASGGPFSIYAISWVRQTPGLGPEWMGEIIPISGTPNYAQKFRDRVTITADESTSTVYMELSSLRSDDTAVYYCARGGRAYFDDNSGYWTFFDYWGQGTLVTVSS chain 2: DIQMTQSPSSLSASVGDRVTITCRASQNISRFLNWYQQKPGKAPKLVIYAASTLQSGVPSRLSGSGSGTVFSLTISGLQPEDFSTYFCQQSYNAPRTFGQGTKLEIK | 0.00141 µg/mL | > 1 µg/mL | 0.000612 µg/mL | 0.00265 µg/mL
9 | C5294 (protein) chain 1: EVQLVESGGSLAQPGGSLRLSCAASGFTFSTHDMHWLRQSPEKGLEWVSAIGTSGDTYYSDSVKGRFTISRENAKNSLYLQMNSLRAGDTAVYYCARGGRGYTFGSWYFDLWGRGTLVTVSS chain 2: DIQMTQSPPSLSASVGDRVTITCRASQSITNYLNWYQQKPGKAPKLLIYAASTLQSGVPSRFSGSGSGTDFTLTISSLQPEDFATYYCQQSYTMPPITFGQGTRLEIK | > 1 µg/mL | > 1 µg/mL | > 1 µg/mL | 0.00362 µg/mL
10 | C5296 (protein) chain 1: QVQLVESGGGVVQPGRSLRLSCAASGFTFSIYGMHWIRQAPGKGLEWVAAIWYDGSNKNYADSVKGRFTVSRDNSKSTLYLQINSLRSEDTAVYYCAKGLGTYASGWYSDYWGQGTLVTVSS chain 2: DIQMTQSPSSLSASVGDRVTITCQASQDISNFLNWFQQKPGKAPKLLIYDASNLETGVPSRFSGSGSGTDFTFTISSLQPEDFATYYCQRYDNLPTWTFGQGTKVEIK | > 1 µg/mL | > 1 µg/mL | > 1 µg/mL | 0.00372 µg/mL
11 | C5298 (protein) chain 1: QVQLVQSGAEVKKPGASVKVSCKAYGYTFTSYYIHWVRQAPGQGLEWMGIINPDAGSTTYAHKFQGRVTLTTDTSTSTVYMKLSSLRSEDTAVYYCARDLVLIPAINSLDFWGQGTLVTVSS chain 2: EIVLTQSPATLSLSPGERATLSCRASQSVSSYLAWYQQKPGQAPRLLIYDASNRATGIPARFSGGGSGTDFTLTISSLEPEDFAVYYCQQRSGWPRVFTFGPGTKVDIK | > 1 µg/mL | > 1 µg/mL | > 1 µg/mL | 0.00522 µg/mL
12 | C5305 (protein) chain 1: EVQLVESGGGLVQPGGSLRLSCVASGFTFSSYDMHWVRQTTGKGLEWVSGIGTSGDTYYEDTVKGRFTISRENAKNSVYLQMNSLRAGDTAEYYCVRGADSDYYWYFDLWGRGTLVTVSS chain 2: DIQMTQSPSSLSASVGDRVTITCRASQSIRSYLNWYQQKPGRAPKLLIFGASSLQRGVPSRFSGSGSGTEFTLTISSLQPEDFATYYCQQGYTMPPPTFGQGTRLEIK | > 1 µg/mL | 0.754 µg/mL | 0.741 µg/mL | 0.00317 µg/mL
13 | C5302 (protein) chain 1: EVQLVESGGGLVKPGGSLRLSCAASGFIFKTSDMNWVRQAPGGGLEWVSSIGGRNNFLYYADSVKGRFTISRDNAKNSLYLQMNNLRAEDTAVYYCAGGGYHPLLEPNWFDPWGQGTLVTVSS chain 2: EIVMTQSPATLSVSPGERATLSCRASQSVSNNLAWYQQKFGQAPRLLIYGASTRATGIPARFSGSGSGTEFTLTISSLQSEDFAVYYCQQYHIWPPTLTFGGGTKVEIK | 0.98 µg/mL | 0.681 µg/mL | 0.256 µg/mL | 0.00308 µg/mL
14 | C5304 (protein) chain 1: EVQLVQSGAEVKKPGESLRISCQGSGYSFISYWISWVRQMPGKGLEWMGRLDPSDSYTNYSPSFQGHVTFAADKSINTVYLQWSSLKASDTAIYYCARHDYGDYGAFDIWGQGTMVTVSS chain 2: EIVLTQSPGTLSLSPGERATLSCRGSQSVSSSYLAWYQQKPGQAPRLLIYGASSRATGIPDRFSGSGSGTDFTLTISRLEPEDFAVYYCQQSGRSPTFGGGTKVEIK | > 1 µg/mL | > 1 µg/mL | 0.115 µg/mL | 0.00661 µg/mL
15 | C5301 (protein) chain 1: QVQLVQSGAEVKKPGSSVKVSCQASGGPFSRFAINWVRQAPGQGLEWMGGIIPGLGTTFYARHSHAQDFQGRVTITADESTSTAYLELSSLRSEDTAIYYCARDWWHYDRSGNYGYNWYFDLWGRGTLVTVSS chain 2: QSVLTQPPSVSGAPGQRVTISCTGLSSNIGTDYDVHWYQQLPGTAPKLLIYGNTNRPSGVPDRFSGSRSGTSASLAITGLQAEDEADYFCQSYDSSLSSYVVFGGGTKVTVL | 0.147 µg/mL | 0.322 µg/mL | 0.0369 µg/mL | 0.00393 µg/mL
